Source: PubChem BioAssay AID463173 (ICCB-Longwood Screening Facility, Harvard Medical School, 2010)
The whole screen tested about 52,000 compounds, of which about 4,300 (8.3%) were called active. Rule as the data show it: active = survival mostly below about 52% (no sharp cut-off); inactive = mostly above about 56%. The list shows a part of the results.

Test system: DeltatarO mutant
Assay: growth inhibition of S. aureus wild type versus tarO mutant, primary screen, teichoic acid synthesis inhibitors, RN4220, OD600 (AID 463173)
Details: OD600, 18 h, hits give low values, screened at 18.75 µg/mL (by protocol)

Q: Which survival does the source give for O=C(O)CC1SC(=O)N(c2ccccc2)C1=O (configuration not stated) here?
A: inactive: 95%

Q: With O=C(Cn1c(-c2cccs2)cc2ccccc21)N1CCN(c2ccc(F)cc2)CC1 as the molecule, how does the survival read?
A: inactive: 85%

Q: Which survival does the source give for COC(=O)c1c(-c2cccs2)csc1NC(=O)c1ccc(C)cc1 here?
A: inactive: 74%

Q: How did the survival turn out when COc1ccccc1NC(=O)Cn1c(=O)n(CC2CCC(C(=O)NCCc3ccccc3)CC2)c(=O)c2ccccc21 (configuration not stated) was run?
A: inactive: 85%

Q: Which survival does the source give for CCOc1ccc(CNC(=O)C2CCN(C(=O)N3CC(CC)Oc4ccc(C)cc43)CC2)cc1OC (configuration not stated) here?
A: inactive: 77%

Q: With Cc1cc(NC(=O)c2cc(-c3ccc(Cl)c(Cl)c3)on2)n(-c2ccccc2)n1 as the molecule, how does the survival read?
A: inactive: 63%

Q: For Cc1cc(Br)ccc1NC(=O)c1c(C)oc2ncnc(N3CCCCC3)c12, which survival is on record?
A: inactive: 102%

Q: Which survival does the source give for Cc1ccccc1N1CC(c2nc3ccccc3n2Cc2ccc(Br)cc2)CC1=O (configuration not stated) here?
A: active: 25%

Q: How did the survival turn out when Cc1cc2oc3c(c(=O)c2cc1C)C(c1ccc(C(C)C)cc1)N(c1nc(C)c(C)s1)C3=O (configuration not stated) was run?
A: inactive: 73%

Q: With CCCNC(=O)C1CCN(c2nc3ccc(C)cc3[nH]2)CC1 as the molecule, how does the survival read?
A: inactive: 81%

Q: How did the survival turn out when CCCOc1ccc(CNC(=O)C2CCN(C(=O)c3sccc3-n3cccc3)CC2)cc1 was run?
A: inactive: 79%

Q: COc1ccc(-c2nc3ccccc3n3c(-c4ccc(OC)cc4)c4c(=O)n(C)c(=O)n(C)c4c23)cc1 was tested. Which survival did it give?
A: inactive: 84%

Q: Cc1ccc(CNC(=O)CCCN2C(=O)CCn3nc(-c4cccn4C)cc32)cc1 was tested. Which survival did it give?
A: inactive: 120%

Q: How did the survival turn out when CCOC(=O)c1ccc2c(c1)N(Cc1ccc(F)cc1Cl)C(=O)c1ccccc1S2 was run?
A: inactive: 80%

Q: Which survival does the source give for Cc1cnc(=O)[nH]c1SCC(=O)Nc1cc(C(F)(F)F)ccc1Cl here?
A: inactive: 84%

Q: Which survival does the source give for c1ccc(CCn2nnnc2C(c2cccnc2)N2CCc3ccccc32)cc1 (configuration not stated) here?
A: inactive: 82%

Q: How did the survival turn out when Cc1c(Cl)cccc1-n1nc(C)c2c(C)cc(=O)n(CC(=O)N3CCCc4ccccc43)c21 was run?
A: inactive: 78%

Q: Which survival does the source give for NC1=NC(c2cc(F)cc(F)c2)n2c(nc3ccccc32)N1 (configuration not stated) here?
A: inactive: 95%

Q: With COc1ccc(C(C(=O)NCc2ccccc2)N(Cc2ccco2)C(=O)c2cnccn2)cc1 (configuration not stated) as the molecule, how does the survival read?
A: inactive: 71%

Q: How did the survival turn out when Cc1ccc(CNC(=O)CCc2c(C)nc3c4c(C)cc(C)nc4nn3c2C)cc1 was run?
A: inactive: 87%

Q: With Cc1ccc(Cl)cc1NC(=O)CC1Sc2ccccc2NC1=O (configuration not stated) as the molecule, how does the survival read?
A: inactive: 93%

Q: How did the survival turn out when CCN1CCN(c2cc(C)c3cc(NC(=O)/C=C/c4ccc(C)cc4)ccc3n2)CC1 was run?
A: inactive: 52%

Q: With COc1cccc(NC(=O)N(Cc2cn(C)c3ccccc23)C2CCCCCC2)c1 as the molecule, how does the survival read?
A: active: -13%

Q: Cc1cccc(C(=O)Nc2ccc(N3CCC(N4CCCCC4)CC3)c(C(=O)O)c2)c1 was tested. Which survival did it give?
A: inactive: 100%

Q: Which survival does the source give for COc1cc(CNc2ccc3[nH]c(=O)[nH]c3c2)cc(Br)c1OCc1ccccc1F here?
A: inactive: 68%

Q: How did the survival turn out when Cc1cccc(CN2CCN(CC(=O)Nc3c(C)cccc3C)S2(=O)=O)c1 was run?
A: inactive: 130%

Q: For CC1CCCCN1C(=O)c1ccccc1NC(=O)c1ccco1 (configuration not stated), which survival is on record?
A: inactive: 101%

Q: Which survival does the source give for COCCNC(=O)CSc1nc(-c2ccccc2)[nH]c1-c1ccc(C)cc1 here?
A: inactive: 81%

Q: With Cc1ccc(C)n1-c1nnc(N2CCCC(C(=O)NCc3cccc(Br)c3)C2)s1 (configuration not stated) as the molecule, how does the survival read?
A: inactive: 98%

Q: Which survival does the source give for COCCCn1c(=O)c2sccc2n2c(CCCC(=O)Nc3cccc(C(F)(F)F)c3)nnc12 here?
A: inactive: 69%

Q: Which survival does the source give for Nc1cc(N)nc(SCC(=O)c2ccccc2)n1 here?
A: inactive: 81%

Q: With CCOC(=O)c1cccc(NC(=O)c2ccc3nc(CCc4ccccc4)oc3c2)c1 as the molecule, how does the survival read?
A: inactive: 83%

Q: For O=C(c1ccc2c(c1)N(Cc1ccc(Cl)cc1)C(=O)c1ccccc1S2=O)N1CCC(Cc2ccccc2)CC1 (configuration not stated), which survival is on record?
A: inactive: 74%

Q: O=C(NCCCc1nc2ccccc2n1Cc1cccc(Cl)c1)C1CCCCC1 was tested. Which survival did it give?
A: inactive: 56%

Q: With COc1ccccc1N1CCN(Cc2nnc(-c3ccccc3C)o2)CC1 as the molecule, how does the survival read?
A: inactive: 78%

Q: For Cc1ccccc1OCC(=O)Nc1ccc2nc(SCC(N)=O)sc2c1, which survival is on record?
A: inactive: 61%

Q: Which survival does the source give for COC(=O)c1cn(CC(=O)NC2CCCCCC2)c2ccccc12 here?
A: inactive: 106%

Q: For CCCCOC(=O)c1ccc(NC(=O)c2csnn2)cc1, which survival is on record?
A: inactive: 77%

Q: For CC1=C(C(=O)Nc2ccccc2)C(c2ccc[nH]2)n2ncnc2N1 (configuration not stated), which survival is on record?
A: active: 20%

Q: O=C1OCc2ccc(NC(=O)C3CCCCC3)cc21 was tested. Which survival did it give?
A: inactive: 83%

Q: Which survival does the source give for CCn1cc(C(=O)NCCc2ccc(C)cc2)c(=O)c2cc(S(=O)(=O)N3CCC(C)CC3)ccc21 here?
A: inactive: 57%

Q: With CCCOc1ccc(OC(=O)c2cn(-c3ccc(OC)cc3)c(=O)c3ccccc23)cc1 as the molecule, how does the survival read?
A: inactive: 80%

Q: Which survival does the source give for COc1ccc(S(=O)(=O)N(Cc2cc3cc4c(cc3[nH]c2=O)OCCO4)C2CCCC2)cc1 here?
A: inactive: 95%

Q: How did the survival turn out when COC(=O)c1ccc(NC(=O)C(=O)NCC(c2cccnc2)N2CCc3ccccc32)cc1 (configuration not stated) was run?
A: active: 34%

Q: For Cc1c(Cl)cccc1NC(=O)Cn1nnc(-c2nc(-c3ccccc3)no2)c1N, which survival is on record?
A: inactive: 79%

Q: For CCCOc1ccc(C(=O)Nc2ccc3oc(-c4ccc(N(C)C)cc4)nc3c2)cc1, which survival is on record?
A: inactive: 64%

Q: With Cc1cccc(C)c1NC(=O)CSc1nc2ccccc2c2nc(CCc3c(C)n[nH]c3C)nn12 as the molecule, how does the survival read?
A: inactive: 94%

Q: How did the survival turn out when COC(=O)c1c(-c2ccc(Cl)cc2)noc1N1CCN(c2ccc(F)cc2)CC1 was run?
A: inactive: 83%

Q: Which survival does the source give for COc1ccc(NC(=O)c2csnn2)cc1 here?
A: inactive: 107%

Q: How did the survival turn out when Cc1ccc(NC(=O)Cn2c(=O)n(Cc3ccc(C(=O)NCc4ccc5c(c4)OCO5)cc3)c(=O)c3ccccc32)cc1 was run?
A: inactive: 102%

Q: CC(C)c1cc(C(=O)NCc2ccccc2)no1 was tested. Which survival did it give?
A: inactive: 54%

Q: How did the survival turn out when CCOc1ccc(CNC(=O)CCS(=O)(=O)c2ccc3c(c2)oc(=O)n3C)cc1 was run?
A: inactive: 83%

Q: How did the survival turn out when CCOc1ccccc1NC(=O)C1=C(C)Nc2ncnn2C1c1cccs1 (configuration not stated) was run?
A: active: 37%

Q: How did the survival turn out when Cc1cccc(N2CCN(C(=O)c3ccc4c(Cl)c5c(nc4c3)CCCC5)CC2)c1C was run?
A: inactive: 93%

Q: Which survival does the source give for COc1cccc(-c2nn3c(=O)cc(CN4CCN(C(=O)/C=C/c5ccccc5)CC4)nc3s2)c1 here?
A: inactive: 85%

Q: Which survival does the source give for COc1ccc(NC(=O)Cn2nc(C(F)(F)F)c3c2CCCC3)cc1OC here?
A: inactive: 74%

Q: Which survival does the source give for COc1cc(NC(=O)c2nc3ccccc3n(C)c2=O)cc(OC)c1OC here?
A: inactive: 92%
